# The whole screen tested about 330,000 compounds, of which about 40 (0.01%) were called active. Calls come from the whole dose curve; as a rule, active = well fitted inhibition curve with a large enough effect; inconclusive = small, poorly fitted or top-dose-only effect, or effect the other way; inactive = flat fitted curve, though single readings scatter. This is a selection; strong and weak results do not stand in their true shares.
# Target: Ubiquitin carboxyl-terminal hydrolase 2 (Homo sapiens) (UniProt O75604)
# Chain of UniProt O75604 (O75604 whole entry, looked up): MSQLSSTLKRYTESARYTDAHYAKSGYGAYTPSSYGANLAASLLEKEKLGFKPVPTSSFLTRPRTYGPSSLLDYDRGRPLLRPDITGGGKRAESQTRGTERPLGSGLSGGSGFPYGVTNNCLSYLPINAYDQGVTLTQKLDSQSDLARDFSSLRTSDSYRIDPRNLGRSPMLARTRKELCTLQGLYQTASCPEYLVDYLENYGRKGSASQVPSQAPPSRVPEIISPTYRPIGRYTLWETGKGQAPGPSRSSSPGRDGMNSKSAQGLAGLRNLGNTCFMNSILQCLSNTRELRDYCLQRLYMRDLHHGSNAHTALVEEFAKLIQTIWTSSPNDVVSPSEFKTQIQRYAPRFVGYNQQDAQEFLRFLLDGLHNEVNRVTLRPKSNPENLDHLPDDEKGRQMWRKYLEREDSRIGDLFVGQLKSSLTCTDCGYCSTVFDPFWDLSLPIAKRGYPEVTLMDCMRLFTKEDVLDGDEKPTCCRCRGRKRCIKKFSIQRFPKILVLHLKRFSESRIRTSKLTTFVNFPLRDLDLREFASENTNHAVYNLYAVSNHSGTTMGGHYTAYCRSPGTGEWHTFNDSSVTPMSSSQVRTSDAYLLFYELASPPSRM
# Assay: qHTS Assay for Inhibitors of Ubiquitin-specific Protease USP2a Using CHOP2 as the Reporter;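 for activity change, negative = inhibition: plate controls were DMSO wells for no effect and full inhibition by NEM control for full effect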
# Conditions: USP2 core, Ub-CHOP2 coupled fluorogenic reporter, 485/531; series mostly up to 38.3 µM; activity change, negative = inhibition: at the top concentration
# Text: NIH Molecular Libraries Screening Centers Network [MLSCN] NIH Chemical Genomics Center [NCGC] MLSCN Grant: XO1-MH079852-01 PI Name: Nicholson, Ben. Progenra Inc, Malvern, PA NCGC Assay Overview: Homeostasis of cellular proteins is maintained through a combination of synthesis and degradation. The pathway that accounts for the majority of protein degradation is the ubiquitin-proteasomal pathway. Ubiquitin (Ub) is highly conserved in all cells and the generation of a multi-Ub chain typically targets proteins for degradation by the proteasome. However, ubiquitination is highly reversible and dynamic. Deubiquitination, the reverse process, is catalyzed through the action of enzymes referred to as isopeptidases or deubiquitinating enzymes (DUBs). This group of enzymes is collectively responsible for maintaining adequate pools of free ubiquitin and regulating the ubiquitination status of cellular proteins. The class of DUBs referred to as the ubiquitin-specific proteases (USP) family functions endoproteolytically to cleave Ub chains from a wide range of protein substrates. USP2a deubiquitinates fatty acid synthase (FASN) which has recently been identified as an emerging oncology target. To identify inhibitors of USP2a a cell-free assay was employed. […] The reporter enzyme chosen is an enterokinase called CHOP2, which is activated when the Ub is cleaved by USP2. The free and now activated reporter can subsequently act on its reporter substrate. Thus, this coupled assay gives a fluorescent read-out at excitation/emission wavelengths of 485/531. The assay was developed by Progenra, Inc. and has been licensed for sale by LifeSensors, Inc. as Ub-CHOP2-Reporter-Kit (#PR1101).
# NCGC Assay Protocol Summary: The assay buffer, prepared fresh at the day of the assay, contains 20mM Tris-HCl pH 8.0, 2mM CaCl2, 2mM beta-Mercaptoethanol, 0.05% CHAPS. 3ul of 20nM (10nM final) USP2 core, which is stored on ice, is dispensed into a medium-binding black solid Kalypsys 1,536 well plate using the Kalypsys dispenser. The assay plate is then pinned with 23nL compound with the Kalypsys pintool in columns 5-48. The controls are pinned as follows: column 1 two-fold dilutions of 2M NEM in duplicate; column 2 2M NEM (final concentration 38.2mM); column 3&4 DMSO. The assay plate is incubated at RT for 30min. Subsequently, 1.5uL of 100nM (25nM final) Ub-CHOP2 and 1.5uL of 100nM (25nM final) Reporter Substrate (both stored on ice and protected from light) were dispensed into the plate using the Kalypsys dispenser. Plates were read after 60min RT incubation on a ViewLux (Perkin Elmer) plate reader using the following wavelengths Ex 485nm /Em 531nm. Data were normalized to the to AC100 inhibition (NEM). Concentration-response curves were fitted to the normalized data and the concentration-response curves were then classified based on curve quality (r2), response magnitude and degree of measured activity. The time zero reading was used to flag fluorescence artifacts. Keywords: ubiquitination, deubiquitination, proteases, profluorescent, MLSMR, MLPCN, NIH Roadmap, qHTS, NCGC
# Potency is the fitted concentration of half-maximal effect.
Compound,"activity change, negative = inhibition",Potency
O=C1OC[C@@H]2CCCN2C(=O)[C@@H](CC(=O)N(CCO)Cc2ccccc2)C/C=C\C[C@H]1Cc1ccc(F)cc1,inactive: -1.12%,
COC(=O)C1=C(C)N(Cc2ccccc2)C(=NCCc2c[nH]c3ccccc23)N[C@H]1c1ccccc1,inactive: 3.86%,
O=C(OC[C@H]1O[C@@H](OC(=O)c2cc(O)c(O)c(OC(=O)c3cc(O)c(O)c(O)c3)c2)[C@H](OC(=O)c2cc(O)c(O)c(OC(=O)c3cc(O)c(O)c(O)c3)c2)[C@@H](OC(=O)c2cc(O)c(O)c(OC(=O)c3cc(O)c(O)c(O)c3)c2)[C@@H]1OC(=O)c1cc(O)c(O)c(OC(=O)c2cc(O)c(O)c(O)c2)c1)c1cc(O)c(O)c(OC(=O)c2cc(O)c(O)c(O)c2)c1,,active: 5.01 µM
COc1ccc(-c2csc(N3CCN(C(=O)c4ccco4)CC3)n2)cc1,,active: 11.2 µM
C=CC[C@@H](CC(=O)N[C@@H](CO)Cc1ccccc1)C(=O)N[C@@H](COC(=O)[C@H](CC=C)CC(=O)OC(C)(C)C)Cc1c[nH]c2ccccc12,inactive: -0.524%,
N[C@@H](Cc1cc(I)c(Oc2ccc(O)c(I)c2)c(I)c1)C(=O)O,inactive: 0.705%,
NC(=NCCCCCCN=C(N)/N=C(\N)Nc1ccc(Cl)cc1)/N=C(\N)Nc1ccc(Cl)cc1,,inactive
Cc1c(N=C/C=C2/N(C)c3ccccc3C2(C)C)c(=O)n(-c2ccccc2)n1C,inactive: 2.29%,
C=CC[C@@H](CC(=O)N[C@H](CO)Cc1ccccc1)C(=O)N[C@@H](COC(=O)[C@@H](CC=C)CC(=O)OC(C)(C)C)Cc1c[nH]c2ccccc12,inactive: 1.96%,
C[c-]1[c-](C)[c-](C)[c-](C)[c-]1C.[Fe].c1cc2nccc(N3CCCC3)[c-]2c1 (centres undefined),inactive: 3.87%,
O=C1OC[C@H]2CCCN2C(=O)[C@@H](CC(=O)N(CCO)Cc2ccccc2)C/C=C\C[C@H]1Cc1ccc(F)cc1,inactive: -9.19%,
O=C1OC[C@H]2CCCN2C(=O)[C@@H](CC(=O)N(CCO)Cc2ccccc2)C/C=C\C[C@@H]1Cc1ccc(F)cc1,inactive: 0.284%,
CC(C)(C)OC(=O)C[C@@H]1C/C=C\C[C@H](CC(=O)N(CCO)Cc2ccccc2)C(=O)NC[C@@H](c2ccccc2)OC1=O,inactive: 0.665%,
C=CC[C@@H](CC(=O)N[C@@H](CO)Cc1ccccc1)C(=O)N[C@H](COC(=O)[C@@H](CC=C)CC(=O)OC(C)(C)C)Cc1c[nH]c2ccccc12,inactive: 2.16%,
Cc1ccc(NC(=O)CN2C(=O)N/C(=C\c3ccco3)C2=O)cc1,inactive: -0.309%,
O=C(/C=C/c1ccc(O)c(O)c1)OC(Cc1ccc(O)c(O)c1)C(=O)O (centres undefined),inactive: 2.7%,
C#CCOCCOCCOCCNc1nc(N2CCN(C(=O)CCCCCCCCCCNC(=O)[C@H](CCCN=C(N)N)n3cc(C[C@@H](C)CC)nn3)CC2)nc(N2CCN(C(=O)CCCCCCCCCCNC(=O)[C@@H]([C@H](C)CC)n3cc(CCCCCN)nn3)CC2)n1,,active: 10 µM
O=C1NC[C@H](c2ccccc2)OC(=O)[C@@H](Cc2ccc(F)cc2)CC/C=C/C[C@@H]1CC(=O)N(CCO)Cc1ccccc1,inactive: -4.87%,
O=C(N/C(=C\c1cccnc1)C(=O)N1CCOCC1)c1ccco1,inactive: 2.26%,
C=CC[C@H](CC(=O)OC(C)(C)C)C(=O)OC[C@@H]1CCCN1C(=O)[C@@H](CC=C)CC(=O)N[C@H](CO)Cc1ccccc1,inactive: 2.57%,
CC(C)(C)OC(=O)C[C@@H]1C/C=C\C[C@@H](CC(=O)N(CCO)Cc2ccccc2)C(=O)NC[C@H](c2ccccc2)OC1=O,inactive: 6.52%,
CCCCc1ccc(/C=C2\C(=O)ON=C2c2ccccc2)s1,inactive: 1.57%,
CC(C)(C)OC(=O)C[C@@H]1C/C=C\C[C@H](CC(=O)N(CCO)Cc2ccccc2)C(=O)NC[C@H](c2ccccc2)OC1=O,inactive: 2.9%,
O=C1NC[C@@H](c2ccccc2)OC(=O)[C@H](Cc2ccc(F)cc2)CC/C=C/C[C@H]1CC(=O)N(CCO)Cc1ccccc1,inactive: -0.544%,
CCCOC(=O)CCCC[C@H]1SC[C@@H](NC(=O)OC)[C@H]1NC(=O)OC,inactive: 0.105%,
O=C(Nc1cccc(C(F)(F)F)c1)/C(=C/c1ccco1)NC(=O)c1cccs1,inactive: -0.194%,
CC(C)(C)OC(=O)C[C@H]1C/C=C\C[C@@H](CC(=O)N(CCO)Cc2ccccc2)C(=O)NC[C@@H](c2ccccc2)OC1=O,inactive: -0.498%,

Compound,"activity change, negative = inhibition",Potency
C=CC[C@H](CC(=O)N(CCO)Cc1ccccc1)C(=O)NCCOC(=O)[C@@H](CC=C)CC(=O)OC(C)(C)C,inactive: 3.83%,
C#CCOCCOCCOCCNc1nc(N2CCN(C(=O)CCCCCCCCCCNC(=O)[C@H](CCCCN)n3cc(C)nn3)CC2)nc(N2CCN(C(=O)CCCCCCCCCCNC(=O)[C@H](CCCN=C(N)N)n3cc(C[C@@H](C)CC)nn3)CC2)n1,,active: 11.2 µM
O=C1OC[C@@H]2CCCN2C(=O)[C@H](CC(=O)N(CCO)Cc2ccccc2)C/C=C\C[C@H]1Cc1ccc(F)cc1,inactive: 3.7%,
CC(C)(C)OC(=O)C[C@@H]1C/C=C\C[C@@H](CC(=O)N(CCO)Cc2ccccc2)C(=O)NC[C@@H](c2ccccc2)OC1=O,inactive: 3.41%,
N=C1C(c2nc3ccccc3c(=O)[nH]2)=C(O)CN1CCc1ccccc1,,active: 0.794 µM
O=C1NC[C@@H](c2ccccc2)OC(=O)[C@@H](Cc2ccc(F)cc2)CC/C=C/C[C@H]1CC(=O)N(CCO)Cc1ccccc1,inactive: -20%,
C=CC[C@@H](CC(=O)N[C@@H](CO)Cc1ccccc1)C(=O)N[C@@H](COC(=O)[C@@H](CC=C)CC(=O)OC(C)(C)C)Cc1c[nH]c2ccccc12,inactive: -3.28%,
C=CC[C@@H](CC(=O)N[C@@H](CO)Cc1ccccc1)C(=O)N[C@H](COC(=O)[C@H](CC=C)CC(=O)OC(C)(C)C)Cc1c[nH]c2ccccc12,inactive: 0.66%,
CC(C)NC(=O)/C(C#N)=C\c1ccc(N(C)C)o1,inactive: 1.54%,
CC(C)c1ccc2c(c1)c(SC(C)(C)C)c(CC(C)(C)C(=O)O)n2Cc1ccc(Cl)cc1,inactive: 6.08%,
C=CC[C@H](CC(=O)N(CCO)Cc1ccccc1)C(=O)N[C@@H](C)COC(=O)[C@H](CC=C)CC(=O)OC(C)(C)C,inactive: 3.69%,
C#CCOCCOCCOCCNc1nc(N2CCN(C(=O)CCCCCCCCCCNC(=O)[C@H]([C@@H](C)CC)n3cc(CCCCN=C(N)N)nn3)CC2)nc(N2CCN(C(=O)CCCCCCCCCCNC(=O)[C@H](CCCN=C(N)N)n3cc(C[C@@H](C)CC)nn3)CC2)n1,,active: 11.2 µM
C=CC[C@H](CC(=O)N[C@H](CO)Cc1ccccc1)C(=O)N[C@@H](COC(=O)[C@H](CC=C)CC(=O)OC(C)(C)C)Cc1c[nH]c2ccccc12,inactive: 4.12%,
CCO[C@@H]1OC(C(=O)N2CCCCCCC2)=C[C@H](c2ccc(C(F)(F)F)cc2)[C@H]1CCCO,inactive: 0.576%,
O=C1NC[C@H](c2ccccc2)OC(=O)[C@H](Cc2ccc(F)cc2)CC/C=C/C[C@H]1CC(=O)N(CCO)Cc1ccccc1,inactive: -5.22%,
C=CC[C@@H](CC(=O)OC(C)(C)C)C(=O)OC[C@@H]1CCCN1C(=O)[C@@H](CC=C)CC(=O)N[C@@H](CO)Cc1ccccc1,inactive: -1.71%,
CC(C)(C)OC(=O)C[C@H]1C/C=C\C[C@@H](CC(=O)N(CCO)Cc2ccccc2)C(=O)NC[C@H](c2ccccc2)OC1=O,inactive: 5.47%,
Cc1ccc(S(=O)(=O)N2[C@@H](c3ccccc3F)C(C(=O)O)=CC[C@H]2c2ccc(Cl)c(Cl)c2)cc1,,active: 11.2 µM
C=CC[C@@H](CC(=O)OC(C)(C)C)C(=O)OC[C@@H]1CCCN1C(=O)[C@@H](CC=C)CC(=O)N[C@H](CO)Cc1ccccc1,inactive: -0.177%,
C=CC[C@@H](CC(=O)N(CCO)Cc1ccccc1)C(=O)N[C@@H](C)COC(=O)[C@@H](CC=C)CC(=O)OC(C)(C)C,inactive: 1.23%,
C=CC[C@H](CC(=O)N[C@H](CO)Cc1ccccc1)C(=O)N[C@H](COC(=O)[C@H](CC=C)CC(=O)OC(C)(C)C)Cc1c[nH]c2ccccc12,inactive: 0.946%,
O=C1NC[C@H](c2ccccc2)OC(=O)[C@@H](Cc2ccc(F)cc2)CC/C=C/C[C@H]1CC(=O)N(CCO)Cc1ccccc1,inactive: -4.91%,
C=CC[C@@H](CC(=O)OC(C)(C)C)C(=O)OC[C@H]1CCCN1C(=O)[C@@H](CC=C)CC(=O)N[C@H](CO)Cc1ccccc1,inactive: -0.984%,
O=C1NC[C@H](c2ccccc2)OC(=O)[C@H](Cc2ccc(F)cc2)CC/C=C/C[C@@H]1CC(=O)N(CCO)Cc1ccccc1,inactive: -14.1%,
C=CC[C@@H](CC(=O)N[C@H](CO)Cc1ccccc1)C(=O)N[C@H](COC(=O)[C@@H](CC=C)CC(=O)OC(C)(C)C)Cc1c[nH]c2ccccc12,inactive: 1.56%,
C=CC[C@H](CC(=O)N(CCO)Cc1ccccc1)C(=O)NCCOC(=O)[C@H](CC=C)CC(=O)OC(C)(C)C,inactive: 1.07%,
O=[N+]([O-])/C(C(Cl)=C(Cl)Cl)=C(/Sc1ccccc1)N1CCCCC1,inactive: 0.0212%,
